# Data published in PubChem BioAssay AID743255 (National Center for Advancing Translational Sciences (NCATS), 2014).
# The campaign covered roughly 390,000 compounds. About 910 (0.23%) were called active. About 5% were inconclusive and are not listed. Calls come from the whole dose curve; as a rule, active = well fitted inhibition curve with a large enough effect; inconclusive = small, poorly fitted or top-dose-only effect; inactive = no such curve, though single readings can be large or run the other way. This is a selection; strong and weak results do not stand in their true shares.
# Biological target: Ubiquitin carboxyl-terminal hydrolase 1 (Homo sapiens) (UniProt O94782)
# Sequence of UniProt O94782 (O94782 whole entry, looked up): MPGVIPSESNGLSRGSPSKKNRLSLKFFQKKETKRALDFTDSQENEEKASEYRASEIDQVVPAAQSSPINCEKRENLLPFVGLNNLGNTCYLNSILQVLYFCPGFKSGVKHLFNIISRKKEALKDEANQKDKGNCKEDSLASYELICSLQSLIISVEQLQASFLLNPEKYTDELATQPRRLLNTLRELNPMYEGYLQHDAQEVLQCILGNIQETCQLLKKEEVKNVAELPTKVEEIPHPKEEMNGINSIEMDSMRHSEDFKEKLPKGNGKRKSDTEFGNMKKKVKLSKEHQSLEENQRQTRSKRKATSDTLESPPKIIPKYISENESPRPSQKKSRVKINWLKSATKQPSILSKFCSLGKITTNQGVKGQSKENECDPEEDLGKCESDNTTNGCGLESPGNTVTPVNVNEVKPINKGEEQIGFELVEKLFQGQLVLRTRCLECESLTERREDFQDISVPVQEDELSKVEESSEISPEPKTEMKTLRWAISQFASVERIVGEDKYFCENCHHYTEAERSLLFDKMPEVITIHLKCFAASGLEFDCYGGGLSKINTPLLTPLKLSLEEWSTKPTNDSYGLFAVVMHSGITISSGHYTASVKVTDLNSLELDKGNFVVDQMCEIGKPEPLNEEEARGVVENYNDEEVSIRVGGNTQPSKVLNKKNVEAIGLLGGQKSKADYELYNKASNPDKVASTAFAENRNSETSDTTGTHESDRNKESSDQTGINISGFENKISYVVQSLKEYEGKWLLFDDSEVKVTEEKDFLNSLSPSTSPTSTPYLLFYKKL
# Assay: Inhibitors of USP1/UAF1: Primary Screen; note: nearly all actives have a fitted effect of over 60% in size
# Conditions: recombinant USP1/UAF1, Ub-Rhodamine cleavage fluorescence; activity change, negative = inhibition: at 57.1 µM (top of the series)
# How it was run: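 USP1/UAF1 complex (1 nM) preincubated 15 min at room temperature with compound, then Ub-Rho substrate (150 nM final) added. Kinetic fluorescence at 480/540 nm over 6 reads at 60 s intervals; 50 mM HEPES pH 7.8, 0.5 mM EDTA, 0.1 mg/ml BSA, 1 mM TCEP, 0.01% Tween-20.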
# % is set by controls: 0 for no effect and ±100 for the full control effect; potency is the fitted concentration of half-maximal effect.
Structure (SMILES),Potency,"activity change, negative = inhibition"
COc1ccc(C(=O)Nc2ccc(NC(=O)c3cccs3)cc2)cc1OC,active: 25.1 µM,–
O=C(O)c1ccc(NC2=C/C(=N/S(=O)(=O)c3cccs3)c3ccccc3C2=O)cc1,active: 5.01 µM,–
Cc1c(C(=O)N(Cc2ccc(N(C)C)cc2)CC2CCCO2)oc2ccccc12 (centres undefined),–,inactive: -5.46%
O=C(O)c1cccc(NC2=C(n3nnc4ccccc43)C(=O)c3ccccc3C2=O)c1,active: 28.2 µM,–
COC(C[C@@H]1O[C@@H]1[C@@H](O)[C@H](C)OCc1ccccc1)OC,–,inactive: -28.1%
O=C(C1=C[C@H](c2ccccc2)C[C@H](OCc2ccc(CO)cc2)O1)N1CCN(Cc2ccc3c(c2)OCO3)CC1,–,inactive: -23.4%
CCOc1ccc2nc3cc(N=Nc4ccc(N)nc4N)ccc3c(N)c2c1,active: 15.8 µM,–
COc1ccc(N2CCN(C(=O)c3ccc4c(c3)CCN4S(=O)(=O)c3ccccc3)CC2)cc1,–,inactive: -14.9%
O=C(CCCN1C(=O)/C(=C\c2ccccc2)SC1=S)Nc1ccccc1O,–,inactive: -10.5%
CN1CCc2c(sc3c2C(=O)NC(c2ccccn2)N3)C1 (centres undefined),active: 31.6 µM,–
C=CC[C@@H](CC(=O)N(CCO)Cc1ccccc1)C(=O)N[C@H](COC(=O)[C@@H](CC=C)CC(=O)OC(C)(C)C)Cc1c[nH]c2ccccc12,–,inactive: -26.3%
Nc1ccc(N)c(C(=O)O)c1,active: 20 µM,–
COc1ccc(OC)c(NC(=O)CCNS(=O)(=O)c2cccc3nsnc23)c1,–,inactive: -25.9%
Nc1ncnc2c1ncn2C1OC(COP(=O)(O)O)C(O)C1O (centres undefined),–,inactive: -11.1%
OCC[C@@H]1C[C@@H](O)[C@H](O)[C@]2(OCc3ccccc32)O1,–,inactive: -12.9%
CCOc1cc(Br)c(/C=C2/C(=O)N(C)C(=S)N2CC(=O)OC)cc1OC,–,inactive: 93.5%
C[C@H](O)CNC(=O)c1[nH]cnc1C(=O)Nc1cccc(Cl)c1,–,inactive: -19.2%
OCC[C@@H]1C[C@H](O)[C@@H](O)[C@@]2(CCCCO2)O1,–,inactive: -14%
O=C(Nc1nnc(SCc2ccccn2)s1)C1CC(=O)N(c2ccc(F)cc2)C1 (centres undefined),–,inactive: 106%
O=C(NCc1ccccc1)C1=C[C@@H](C2CC2)C[C@@H](OCc2ccc(CO)cc2)O1,–,inactive: -13.4%
C/C=C(\C)C(=O)NCCN1C2=NC[C@H](C)N2C[C@@H]1Cc1ccc(OC)cc1,–,inactive: -19%
CC1(C)S[C@@H]2[C@H](NC(=O)[C@H](N)c3ccccc3)C(=O)N2[C@H]1C(=O)O,–,inactive: -29.1%
COc1cc(/C=C/c2sc3ccccc3[n+]2CCCS(=O)(=O)[O-])ccc1O,active: 25.1 µM,–

Structure (SMILES),Potency,"activity change, negative = inhibition"
O=C(C[C@H]1C/C=C/CC[C@H](Cc2ccc(F)cc2)C(=O)O[C@H](c2ccccc2)CNC1=O)NCCO,–,inactive: -13.3%
C=CCOc1ccc(C2C(C(=O)c3cccs3)=C(O)C(=O)N2c2nnc(C)s2)cc1 (centres undefined),–,inactive: 47.9%
COc1cccc(Nc2nnc(-c3cc4ccc(O)cc4oc3=O)s2)c1,–,inactive: 144%
Cc1ccc(NC(=O)CC2Oc3ccc(C)cc3NC2=O)c(C)c1 (centres undefined),–,inactive: -1.9%
OCC[C@@H]1C[C@H](O)[C@@H](O)[C@]2(CCCc3ccccc3O2)O1,–,inactive: -15.5%
N#Cc1c(N2CCCC2)nc(N)c2c(N)nc(N3CCCC3)cc12,active: 0.316 µM,–
O=C(C1=C[C@H](c2csc3ccccc23)C[C@H](OCc2ccc(CO)cc2)O1)N1CCN(Cc2ccccc2)CC1,–,inactive: -22.9%
O=C(Nc1ccccc1)C1=C[C@@H](c2ccc(C(F)(F)F)cc2)C[C@@H](OCc2ccc(CO)cc2)O1,–,inactive: -16.7%
O=C(C1=NN(c2ccccc2)C2C(=O)N(c3ccccc3Cl)C(=O)C12)c1ccccc1 (centres undefined),–,inactive: 29%
COc1ccc(NC(=O)CNC(=O)Cn2c(C)cc3ccccc3c2=O)c(OC)c1,–,inactive: -16.1%
CCN1CCN(Cc2ccc(NC(=O)c3ccc(C)c(/C=C/c4cnc(Nc5cc(N6CCNCC6)nc(C)n5)cn4)c3)cc2C(F)(F)F)CC1,–,inactive: -21.3%
CCO[C@H]1OC(C(=O)NC2CC2)=C[C@@H](C2CC2)[C@@H]1CCCO,–,inactive: -25.3%
Cc1c(N2C(=O)/C(=C\c3cccc4ccccc34)SC2=S)c(=O)n(-c2ccccc2)n1C,–,inactive: -7.23%
C[C@H](CO)N1C[C@H](C)[C@@H](CN(C)S(=O)(=O)c2ccccc2)OCc2cn(nn2)CCCC1=O,–,inactive: -27.9%
O=C(N/N=C/c1c(O)n(Cc2ccccc2)c(=O)c2ccccc12)c1cccnc1,active: 25.1 µM,–
CCCCOC(=O)c1ccc(NC(=O)c2sc3nc(C)cc(C)c3c2N)cc1,–,inactive: 31.3%
O=C(NCc1nc2ccccc2[nH]1)C1=C[C@@H](c2ccc(Br)cc2)C[C@@H](OCc2ccc(CO)cc2)O1,–,inactive: 7.07%
COc1ccc(-n2nc3c(N4CCC(C(=O)NCc5ccccc5C)CC4)nnc(C)c3c2C)cc1,–,inactive: -22.3%
Cc1ccc(CNC(=O)c2cc(=O)c3cc(C)ccc3o2)cc1,–,inactive: -16.5%
CCc1ccc(NC2=CC(=O)C(=O)c3ccccc32)cc1,active: 28.2 µM,–
C[C@H](CO)N1C[C@H](C)[C@@H](CN(C)C(=O)c2cc(-c3ccccc3)on2)OCc2cnnn2CCCC1=O,–,inactive: -11.9%
CCc1cccc(C)c1NC(=O)CC1Oc2ccc(C)cc2NC1=O (centres undefined),–,inactive: -16.5%
COC(=O)c1cc2occc2n1Cc1nc(-c2ccccc2F)oc1C,–,inactive: -24.9%

Structure (SMILES),Potency,"activity change, negative = inhibition"
C=CC[C@@H](CC(=O)N[C@H](CO)Cc1ccccc1)C(=O)N[C@@H](COC(=O)[C@@H](CC=C)CC(=O)OC(C)(C)C)Cc1c[nH]c2ccccc12,–,inactive: -29.1%
N#C/C(=C/c1ccc(N2CCOCC2)o1)c1nc2ccccc2[nH]1,active: 25.1 µM,–
COc1ccc(CNC(=O)CN2C(=O)COc3ccc(S(=O)(=O)NC4CCCC4)cc32)cc1,–,inactive: -23%
Cc1nc2scc(C)n2c(=O)c1S(=O)(=O)NCc1ccccc1Cl,–,inactive: -6.78%
Cn1cccc1/C=C1\SC(=S)N(Nc2ccccc2)C1=O,–,inactive: 43.6%
O=C1OC[C@@H]2CCCN2C(=O)[C@@H](CC(=O)N(CCO)Cc2ccccc2)C/C=C\CC[C@H]1Cc1ccc(F)cc1,–,inactive: -31.3%
COC1=CC(=O)c2c(ccc3ncnc(N)c23)C1=O,active: 0.891 µM,–
CCOC(=O)N1CCN(S(=O)(=O)N2CCCC(C(=O)NCc3cc(OC)ccc3OC)C2)CC1 (centres undefined),–,inactive: -12.5%
COc1cccc(S(=O)(=O)N(C)C[C@H]2OCc3cnnn3CCCC(=O)N([C@@H](C)CO)C[C@H]2C)c1,–,inactive: -17.3%
COc1ccc(C(=O)NC(=S)NNC(=O)CCc2ccccc2)cc1,–,inactive: 31.1%
CCN(CC)S(=O)(=O)c1ccc(C(O)=C(C#N)c2nc3ccccc3n2C)cc1,–,inactive: -23.7%
COc1cc(N=Cc2c(O)c3ccccc3oc2=O)c(OC)cc1Cl,–,inactive: -30.5%
N#C/C(=C\c1ccc(-c2ccccc2C(=O)O)o1)c1nc2ccccc2[nH]1,–,inactive: -4.4%
COc1cccc(CNC(=O)c2nnn(CC(=O)Nc3cc(Cl)ccc3C)c2N)c1,–,inactive: -10.7%
C#CCNC(=O)C1=C[C@@H](c2ccc(C(F)(F)F)cc2)[C@H](CCCO)[C@@H](OCC)O1,–,inactive: -15.9%
Cc1cc(C)cc(NC(=O)Cn2nnc(C(=O)NCCc3ccccc3)c2N)c1,–,inactive: -15.8%
Nc1ccc(C(=O)O)cc1,inactive,–
CC(C)(C)S(=O)(=O)N1C[C@@H]2CC/C=C\C/C(c3ccccc3)=C\2[C@H]1CCO,–,inactive: -22.4%
CC(C)c1ccc2c(c1)CC[C@H]1[C@](C)(CN)CCC[C@]21C,inactive,–
Cc1ccc(S(=O)(=O)NC(=O)Nc2ccc(N(C)C)cc2)cc1,active: 17.8 µM,–
C=CCOc1cccc(C2C(C(=O)c3ccc(C)o3)=C(O)C(=O)N2c2nccs2)c1 (centres undefined),–,inactive: 33.8%
CCc1ccccc1NC(=O)c1cc(-c2ccc3c(c2)OCO3)on1,–,inactive: -7.97%
COc1ccc(CNC(=O)CN2C(=O)COc3ccc(S(=O)(=O)N4CCOCC4)cc32)cc1,–,inactive: -22.9%

Structure (SMILES),Potency,"activity change, negative = inhibition"
Cc1cccc(N2CCN(C(=O)c3ccc4c(c3)c(C)c(C)n4C)CC2C)c1 (centres undefined),–,inactive: -25.4%
C=CC[C@H](CC(=O)N[C@H](CO)Cc1ccccc1)C(=O)N[C@@H](COC(=O)[C@@H](CC=C)CC(=O)OC(C)(C)C)Cc1c[nH]c2ccccc12,–,inactive: -21.8%
C[C@H]1CN([C@@H](C)CO)C(=O)CCCn2nncc2CO[C@H]1CN(C)S(=O)(=O)c1ccc(Oc2ccccc2)nc1,–,inactive: -24.1%
CN(C)c1ccc(C(CNS(=O)(=O)c2ccc(F)cc2)N2CCc3ccccc32)cc1 (centres undefined),–,inactive: 65.7%
Cc1ccc2cccc(Oc3ncnc4scc(-c5ccc(Cl)cc5)c34)c2n1,active: 14.1 µM,–
COc1cccc(-n2nnc(-c3nc(-c4ccccc4F)no3)c2C)c1,–,inactive: 44.5%
CCOCCCN(Cc1ccco1)C(=O)c1cc2c(=O)[nH]c3ccc(C)cc3c2s1,–,inactive: -6.74%
CC(C)c1ccc(OCC(O)CN2CCN(c3ccc(F)cc3)CC2)cc1 (centres undefined),–,inactive: 43%
Cc1c(C(C)CCCO)oc(=O)c2c1Oc1c(C)c(C(C)C[C@H](C)O)oc(=O)c1C2 (some centres undefined),–,inactive: -14.7%
CCOC(=O)c1ccc(NC(=O)CC2NCCNC2=O)cc1 (centres undefined),–,inactive: 3.39%
CC1CCCN(CCCNC(=O)CN2C(=O)CSc3ccc(S(=O)(=O)N4CCOCC4)cc32)C1 (centres undefined),–,inactive: -1.77%
C[C@H]1COC(=O)[C@@H](CC(=O)OC(C)(C)C)C/C=C\C[C@@H](CC(=O)N(CCO)Cc2ccccc2)C(=O)N1,–,inactive: -9.2%
Cc1cccc(CS(=O)(=O)c2ncc(Cl)c(C(=O)NCc3ccccc3)n2)c1,–,inactive: -12.4%
CCN1/C(=C\c2ccc3cc(C)ccc3[n+]2CC)Sc2cc(C)c(C)cc21,–,inactive: -14.9%
COC(=O)C1=COC(OC2OC(CO)C(O)C(O)C2O)C2C1C=CC2(O)CO (centres undefined),–,inactive: -15%
CCOC(=O)c1ccccc1NC(=O)Cn1c(=O)n(Cc2ccccc2)c(=O)c2c(C)c(C)sc21,–,inactive: -21.8%
CNC(=O)c1sc(N2N=C3/C(=C/c4ccccc4)CCCC3C2c2ccccc2)nc1C (centres undefined),–,inactive: -19.7%
O=c1c2ccccc2nc(-c2cccc(Cl)c2)n1O,–,inactive: 13.1%
CCOc1ccc(CCNC(=O)c2ccc3nc(CC)c(CC)nc3c2)cc1,–,inactive: -3.05%
Cc1ccc(S(=O)(=O)/N=C2/NC(=O)/C(=C/c3cc([N+](=O)[O-])ccc3O)S2)cc1,active: 28.2 µM,–
